Among all 150,000 compounds or so, about 540 (0.36%) showed an effect of 50% or more. The list shows a part of the results.
Tested on: Plasmodium falciparum
Experiment: Primary screen in NF54 nanoGlo assay, in single point, at 2uM, 72h; a lower Z score goes with more inhibition
Type: functional, Erythrocyte
Details: timepoint 72 hour

Row | Compound | % Inhibition | Z score | % Inhibition (2 µM) | Z score (2 µM)
1 | CCc1ccc(-c2c(-c3ccccc3)ncn2Cc2ncc[nH]2)o1 | -5% | 0.46 |  | 
2 | Nc1nc(CNC(=O)c2cncs2)cs1 | -7% | 1.4 |  | 
3 | Cc1cc(C)c(C#N)c(-c2cccc(C(=O)N[C@@H](C)c3nc(C4CC4)no3)c2)n1 | 11% | -1.79 |  | 
4 | Cc1cc(C(=O)N2CCC(Cc3ccccc3)CC2)ccc1N(C)S(C)(=O)=O | -9% | 1.55 |  | 
5 | CCc1noc(COCC(=O)N2CCc3cc(C)c(C)cc32)n1 | -13% | 2.56 |  | 
6 | COC[C@H]1[C@H](NS(=O)(=O)c2c(C)cnn2C)[C@H]2CCO[C@H]21 | -25% | 2.54 |  | 
7 | Cc1oncc1CN1CCN(C(=O)c2cccc(F)c2)CC1 | -1% | 0.1 |  | 
8 | COc1cccc([C@@H]2CNC(=O)c3nc(-c4nccn4C(C)C)[nH]c3C2)c1 | 1% | -0.26 |  | 
9 | O=C(NS(=O)(=O)c1cc(Cl)sc1Cl)c1ccc2c(c1)OCO2 | 6% | -0.77 |  | 
10 | O=C(NCC1(C(F)(F)F)CC1)[C@H]1CCc2[nH]ncc2C1 | -9% | 1.04 |  | 
11 | O=C(Nc1ccn2ccnc2c1)N1Cc2ncccc2N2CCC[C@H]2C1 | -3% | 0.3 |  | 
12 | O=C(c1nn[nH]c1Nc1ccccc1F)N1CCN(C2CCCCC2)CC1 | -8% | 0.97 |  | 
13 | O=C(c1cc(Br)ccc1O)N1CCC(C(=O)N2CCCC2)CC1 | -10% | 1.15 |  | 
14 | CCN(Cc1cn(C)nn1)C(=O)c1scnc1C(C)C | 6% | -0.84 |  | 
15 | CN(CC(F)F)C(=O)c1cnc(OCC2CC2)c(Cl)c1 | -6% | 0.86 |  | 
16 | COc1cccc(Cc2nc(CC(=O)NC3CCCCC3)no2)n1 | -9% | 1.8 |  | 
17 | CN(c1nc2c(c(N3CCOCC3)n1)CN(S(=O)(=O)c1cccc(Cl)c1)CC2)C1CCCCC1 | -1% | 0.18 |  | 
18 | Cc1nc(C)c(-c2cccc(C(=O)N(C)Cc3ccccc3CN(C)C)c2)[nH]1 | -8% | 0.76 |  | 
19 | Cc1ccc([C@@]2(O)C[n+]3ccccc3N2Cc2ccccc2)cc1 |  |  | -3% | 4.05
20 | CC1CN(C(=O)c2ccc3c(c2)C(C)(C)CO3)C1 | 9% | -1.09 |  | 
21 | CC1(CO)CN(C(=O)Nc2cccnc2-c2ccco2)C1 | -5% | 0.68 |  | 
22 | N#CCCN(Cc1csc(-c2ccoc2)n1)C1CCOCC1 | -13% | 1.75 |  | 

Row | Compound | % Inhibition | Z score | % Inhibition (2 µM) | Z score (2 µM)
23 | COc1cncc(CN(CC(C)C)C2CC2)c1 | 1% | -0.1 |  | 
24 | CC(C)[C@@]1(CO)CCCN(Cc2cncc(F)c2)C1 | -14% | 2.83 |  | 
25 | C[C@H](Oc1ccc(-c2ccccc2)cc1)C(=O)NC1CCS(=O)(=O)CC1 | -2% | 0.2 |  | 
26 | CCn1ncc2c1NC(=O)C[C@@H]2Cc1ccccc1 | -11% | 1.36 |  | 
27 | CN1OCC(S(=O)(=O)NCc2cccc(C(F)(F)F)c2)C1c1cccc(OCc2ccccc2)c1 (stereo not given) | -3% | 0.41 |  | 
28 | CCC(=O)N1CCN(C(=O)[C@@H]2CCCO2)CC1 | -12% | 1.15 |  | 
29 | Cc1ccc(S(=O)(=O)N2CCN(Cc3ccccc3)CCN(S(=O)(=O)c3ccc(C)cc3)CCN(S(=O)(=O)c3ccc(C)cc3)CC2)cc1 | -13% | 2.46 |  | 
30 | COc1nc2c(cc1CNC(=O)c1occc1C)C(=O)N(C1CCCC1)C2 | -9% | 0.84 |  | 
31 | CCc1ccc2nc(-c3ccc[nH]3)[nH]c(=O)c2c1 | -4% | 0.59 |  | 
32 | Cc1ccc(Cl)cc1CNC(=O)N1CC[C@H](S(C)(=O)=O)C1 | -12% | 2.08 |  | 
33 | O=C(COc1ccc2ccccc2c1)N1CCC[C@H](O)C1 | -9% | 1.64 |  | 
34 | CCOc1ccc(C(=O)N2CCC[C@H](C(=O)Nc3nccs3)C2)cc1OCC | -10% | 0.87 |  | 
35 | CC(C)c1cc(C(=O)N2CC[C@@](O)(C3CCOCC3)[C@H](C)C2)cs1 | -4% | 0.7 |  | 
36 | N#Cc1c(C2CC2)n[nH]c1NC(=O)C[C@H]1CCOC1 | 5% | -0.67 |  | 
37 | Cc1nonc1CNC(=O)NC[C@H]1C[C@@H]1c1ccccc1 | -2% | 0.3 |  | 
38 | COc1ccc(-c2cc(N3CCC[C@H](NC(=O)c4cc(C)cc(C)c4)C3)[nH]n2)cc1 | -26% | 2.67 |  | 
39 | Cn1ncnc1CNC(=O)NC1CC1c1cccc(Cl)c1Cl (stereo not given) | -8% | 0.94 |  | 
40 | C[C@]1(Cc2ccc3c(c2)OCO3)CCCN(C(=O)Cn2ccc(=O)cc2)C1 | -4% | 0.34 |  | 
41 | C=C(C)C(=O)Nc1ccc(Cl)c(Cl)c1 | 3% | -0.36 |  | 
42 | N#Cc1cnn(CC#Cc2ccc(F)cc2)c1 | -8% | 0.79 |  | 
43 | O=C(c1cccn2c(=O)c3ccc(Cl)cc3nc12)N1CCN(Cc2ccc3c(c2)OCO3)CC1 | 15% | -1.81 |  | 
44 | Cn1c2c(c(=O)n(C)c1=O)CC[C@@H](c1ccccc1)O2 | -2% | 0.22 |  | 

Row | Compound | % Inhibition | Z score | % Inhibition (2 µM) | Z score (2 µM)
45 | Cc1nccc(N2CCC[C@@]3(CCC(=O)N(CCc4ccccn4)C3)C2)n1 | -10% | 2.03 |  | 
46 | CO[C@@H](C)c1nc(CC(=O)N2CCCc3cc(C(C)(C)C)ccc32)cs1 | -8% | 0.86 |  | 
47 | CCOCC1(CNC(=O)c2cccnc2OC)CCC1 | 1% | -0.27 |  | 
48 | CN(C)c1ncn(-c2cccc(NCc3csc4ccccc34)c2)n1 | 1% | -0.08 |  | 
49 | O=S(=O)(NCc1ccncc1OC[C@H]1CCOC1)c1cnn(CC2CC2)c1 | -9% | 1.21 |  | 
50 | CC(=O)N[C@H]1C[C@H]2CN(S(=O)(=O)c3cccc(F)c3)CC(=O)N2C1 | -24% | 2.14 |  | 
51 | O=C(CCCC(=O)n1cnc2ccccc21)n1cnc2ccccc21 | 8% | -0.96 |  | 
52 | c1ccc2c(c1)CC(Oc1nnc(C3CC3)s1)C2 | -9% | 1.71 |  | 
53 | Cc1cnc(CNc2ccc(Cl)cn2)o1 | -13% | 1.33 |  | 
54 | CN(C(=O)NC1CCOCC1)[C@@H](c1ccccc1)c1ccccn1 | -11% | 1.1 |  | 
55 | COc1ccc(CN(C)CC(=O)Nc2ccc(OCc3ccccc3)cc2)c(OC)c1 | 4% | -0.85 |  | 
56 | COc1ccc(CCN[C@@H](C)Cn2cnc(C)c2C)cc1OC | -9% | 1.08 |  | 
57 | CC1=C[C@@H](CNCc2cccnc2)[C@H](C(C)C)C[C@H]1Cc1nc2cccnc2[nH]1 | 43% | -1.69 |  | 
58 | O=C(Nc1cccc(Cl)c1F)N1CC(F)(F)C[C@H]1CN1CCCCCC1 | -16% | 2.73 |  | 
59 | CCn1ccnc1CN(C)C(=O)c1cc(C)oc1C | -15% | 1.84 |  | 
60 | Cc1ccc(-c2[nH]c([C@H]3CC(=O)N(C4CCCC4)C3)nc2C)s1 | -16% | 2.35 |  | 
61 | O=C(CC1CCCC1)Nc1ccccc1C(=O)N1CCCCC1 | -6% | 1.12 |  | 
62 | CCC(=O)Nc1ccc(Cl)c(NCc2ccn(C)c(=O)c2)c1 | 0% | -0.06 |  | 
63 | Cc1cc(C(=O)Nc2nc(C(=O)N[C@@H](C)c3ccccc3)co2)no1 | 9% | -1.24 |  | 
64 | CC(C)(C)c1nnc(NCCc2nccs2)s1 | -4% | 0.82 |  | 
65 | CC1CCC2C(CCCN2C(=O)COc2ccc(CC(N)=O)cc2)C1 (stereo not given) | -19% | 2.97 |  | 
66 | O=C(N[C@@H](Cc1ccccc1)C(=O)N1CCC2(CC1)NCCc1[nH]cnc12)c1ccco1 | -11% | 2.13 |  | 

Row | Compound | % Inhibition | Z score | % Inhibition (2 µM) | Z score (2 µM)
67 | COc1ccc(-n2cc([C@H](C)Nc3nccc(C)n3)cn2)cc1 | -6% | 1.01 |  | 
68 | CC(C)[C@@H]1CN(Cc2c(C(=O)O)oc3ccccc23)CCCO1 | -5% | 0.77 |  | 
69 | C#CCCC1(CCC(=O)Nc2cccc3c2CCNC3=O)N=N1 | -13% | 1.61 |  | 
70 | O=S(=O)(c1ccc2c(c1)CCO2)N1CC[C@H](Oc2ncccn2)C1 | -19% | 2.96 |  | 
71 | Fc1ccc(-c2cnc3nn[nH]c3c2)c2ncccc12 | -9% | 1.81 |  | 
72 | COC(CNC(=O)OC(C)(C)C)C(=O)Nc1cccc(C(=O)N2CCCC(CO)C2)c1 (stereo not given) | -11% | 1.32 |  | 
73 | COc1cccc(CNCC(=O)N2CCC(Cc3ccccc3)CC2)c1 | -3% | 0.53 |  | 
74 | CC(C)c1ccc(CS(=O)(=O)NC(=O)CCc2cccnc2)cc1 | 1% | -0.08 |  | 
75 | CCc1cn(CC2CCC3(CC2)OCCO3)ccc1=O | -9% | 1.01 |  | 
76 | COC1CCC(C(=O)N2CC[C@H]3[C@H](CCC(=O)N3CC(C)C)C2)CC1 (stereo not given in full) | -3% | 0.41 |  | 
77 | Cn1cnc(C(=O)N2CCC[C@H](CCCc3ccccc3)C2)c1 | -10% | 1.15 |  | 
78 | COc1cccc(CN(Cc2cccc(F)c2)CC2(C)COC2)n1 | -7% | 0.96 |  | 
79 | CS(=O)(=O)NCc1cccc(C(F)(F)F)c1 | 18% | -2.3 |  | 
80 | C[C@H](NS(=O)(=O)CC1CCCCC1)c1cc2ccccc2o1 | -9% | 0.94 |  | 
81 | Cc1nc2ccc(N(C)Cc3csc(-c4ncccn4)n3)cc2s1 | -9% | 1.17 |  | 
82 | CNC(=O)[C@H](CC(C)C)NCC(C)c1ccc(OC)cc1 (stereo not given in full) | -4% | 0.77 |  | 
83 | CC(C)[C@H](NC1CCC2(CC1)OCCO2)c1nc(C2CC2)no1 | 8% | -0.83 |  | 
84 | N#Cc1ccc(CNc2[nH]ncc2C#N)cc1 | -13% | 2.09 |  | 
85 | CNCC(=O)N1CCOC(c2ccc(Br)cc2)C1C (stereo not given) | 4% | -0.45 |  | 
